Measured values from the RNAGym collection of RNA variant scans (doi:10.7554/elife.90254).
The source gives no read counts; variants with many changes may rest on few reads.

B1: OR4K15 (parent)
chain: GUUAACGGUCAUAGGCCAUGGAAACUAGGAGCACCAUUUCGCUGCCAGUGAAGAAAUGAACAAAGAAAAUCUGGGCCAGGCAGGCAUCAAAAGAAAUAGUCUUGCGCUCAACCAGAAAGUCUGUAAUCAUUUUAAGGGUA

Variants of: B1
Test: self-cleavage, relative activity (ratio to wild type); higher = more cleavage; in vitro, sequencing; the parent is a self-cleaving ribozyme

Row | Variant | self-cleavage
1 | U9C A66G U100C | 1.7
2 | A24G A30G A82G A86G A117G | 0.16
3 | A11G G58U G84U | 0.23
4 | A24G A86G A98G U120C U124C U127C | 0.01
5 | A56G A67G A116G A118U | 0.38
6 | A11G A95G U122C | 0.46
7 | G1A A13G A33G A52U U72C U100C U102C U132G | 0.22
8 | A47U U103C A117G | 0.38
9 | A13G A60G U130G | 0.84
10 | U43G C61U A96G | 2.15
11 | U3C C121U A140G | 2.67
12 | A13U A110G A117G | 0.24
13 | A4G U12C A54U A91G U122A | 1.14
14 | U9C A23G U26C G138A | 0.81
15 | A5C A62G A89G A94U | 1.5
16 | A27G A78U A92G U97C | 0.28
17 | U12C A78U A94G U130C | 0.09
18 | U9A A23G U37C A96U A134G | 1.02
19 | U2C A63U U132C | 0.77
20 | A24G A47G A54U U102A A126G | 0.01
21 | A33G U37C A54G | 1.12

Row | Variant | self-cleavage
22 | C6U U49G U108C | 0.02
23 | A51G G119U G136U | 1.12
24 | U49A A51G A60G A64G U102C U108C A116U A117U | 0.01
25 | C6U G29A U43A | 1.34
26 | G8A U43C A114C | 0.02
27 | U3C A94G A95G U122C A125U | 0.82
28 | A23G U43C A51G A66U A69G | 1.18
29 | A18G A23U U87A A91G U131C | 1.04
30 | U37C A92G G123A | 1.84
31 | U38G A56G A82G U100C U120A | 1.26
32 | A24U A33G U70C U132A | 1.22
33 | A23U A33U U37C A56G | 0.86
34 | A5U A60G U130C | 0.13
35 | U39C A68G A92G A96G U124C | 0.73
36 | U19A U43C A56G A67G A82G A94G A95G | 0.59
37 | U38C A51G A55G U139C | 0.62
38 | U9C A116U U120C A134G | 0.11
39 | A33U A94U U100C | 2.41
40 | A36G G79A U122C | 0.11
41 | A69C A110G A118G | 0.1
42 | A13U U43C A96G U124A | 0.62

Row | Variant | self-cleavage
43 | A11G U39C U57C | 1.12
44 | U2C U19C U38C A66G | 0.89
45 | A52G A94U U102C U122C | 2.07
46 | A67G A118G A134G | 1.35
47 | A36G A62G A135G | 2.26
48 | A23G A27G A62U A92G A94G A114U A118U | 0
49 | U9C U49C U130G | 1.18
50 | U49C A92G A111G | 0.01
51 | A47G A56G U57G U131C | 0.43
52 | A5G A23G A52G A94G | 0.69
53 | A82U U100A A116G | 0.01
54 | A22C U57C A62G A68G | 0.33
55 | U19A A66G A90U A116G A118G | 0.5
56 | U38C A56G A59U | 1.37
57 | A5U A13U C113U U139C | 0.22
58 | U26C A51G A63U A117G | 1.17
59 | A56G A78U A82G U100C U130C U132C | 0.61
60 | U19C A23G A92U | 0.69
61 | A33G A47G A91G U97C A98G | 0.75
62 | U2A A86G A134U | 0.42
63 | A51G A67G U70C A91G U132C | 0.56

Row | Variant | self-cleavage
64 | A33U A56G U120C | 0.6
65 | A27G A56G A110U U127C A135G | 0.78
66 | A23G A86G U132C | 1.32
67 | A4G U49A A60G A78G | 0.63
68 | A33G G41C A68G U139A | 1.19
69 | A59U A66G U120C | 2.04
70 | A82G A90G A116G U122C | 0.03
71 | A23G A64G A90G U103C | 0.08
72 | A18G A68G U132C | 1.46
73 | U9C A18U A23G A66G G106A | 0
74 | A36G U38C U72A | 0.21
75 | U9C U38C A47U A89C A125U | 0.27
76 | A22G U39A A52G A66G A96G U120C C121U A135U | 2.13
77 | U3C A52G A86U A96G | 0.89
78 | A5G A33G A47U A54G A64U C77U U102C U108C | 0.04
79 | A13U U43A A82G A90G A110G | 0.03
80 | A33G C45A A51U A86G U108A G136U | 0.04
81 | C6U A13G U39A | 0.53
82 | A23G A69U A91G | 1.17
83 | U38A U87C A111G U122C | 0
